# Among all 3,200 compounds or so, about 300 (9.4%) showed activity. This is a selection; strong and weak results do not stand in their true shares.
# System: A673/TR/shEF
# Assay: cell viability (LOESS-normalised, relative to median of negative controls) (log2 ratio); higher = more viable cells (less compound effect), active = hit call of the paper (over 3 MAD below the median)
# Details: treatment time: 72 h
# In short: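 Doxycycline, present or absent from 24 h before compounds, was used to induce EWS-FLI1 shRNA knockdown in A673/TR/shEF Ewing sarcoma cells at 1,500 per well in 384-well plates. Cells then received library compounds at two or more concentrations, or DMSO controls, for three days. Viability was measured by CellTiter-Glo luminescence on an Envision reader, and per-plate LOESS correction, division by the negative-control median and log2 transformation followed.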
# [1] = 0.25 µM, library screen: screen2, EWS-FLI1 expression: high (no doxycycline)
# [2] = 0.25 µM, library screen: screen2, EWS-FLI1 expression: low (doxycycline-induced shRNA knockdown)
# [3] = 2.5 µM, library screen: screen2, EWS-FLI1 expression: high (no doxycycline)
# [4] = 2.5 µM, library screen: screen2, EWS-FLI1 expression: low (doxycycline-induced shRNA knockdown)
# [5] = 0.25 µM, library screen: screen1, EWS-FLI1 expression: high (no doxycycline)
# [6] = 0.25 µM, library screen: screen1, EWS-FLI1 expression: low (doxycycline-induced shRNA knockdown)
# [7] = 2.5 µM, library screen: screen1, EWS-FLI1 expression: high (no doxycycline)
# [8] = 2.5 µM, library screen: screen1, EWS-FLI1 expression: low (doxycycline-induced shRNA knockdown)
# [9] = 0.103 µM, library screen: screen3, EWS-FLI1 expression: high (no doxycycline)
# [10] = 0.103 µM, library screen: screen3, EWS-FLI1 expression: low (doxycycline-induced shRNA knockdown)
# [11] = 0.308 µM, library screen: screen3, EWS-FLI1 expression: high (no doxycycline)
# [12] = 0.308 µM, library screen: screen3, EWS-FLI1 expression: low (doxycycline-induced shRNA knockdown)
# [13] = 0.926 µM, library screen: screen3, EWS-FLI1 expression: high (no doxycycline)
# [14] = 0.926 µM, library screen: screen3, EWS-FLI1 expression: low (doxycycline-induced shRNA knockdown)
# [15] = 2.8 µM, library screen: screen3, EWS-FLI1 expression: high (no doxycycline)
# [16] = 2.8 µM, library screen: screen3, EWS-FLI1 expression: low (doxycycline-induced shRNA knockdown)
# [17] = 8.3 µM, library screen: screen3, EWS-FLI1 expression: high (no doxycycline)
# [18] = 8.3 µM, library screen: screen3, EWS-FLI1 expression: low (doxycycline-induced shRNA knockdown)
# [19] = 25 µM, library screen: screen3, EWS-FLI1 expression: high (no doxycycline)
# [20] = 25 µM, library screen: screen3, EWS-FLI1 expression: low (doxycycline-induced shRNA knockdown)
smiles,measurement,setting,value
CCSC(N)=Nc1ccc(C(F)(F)F)cc1,cell viability (log2),[1],inactive: 0.167
same,cell viability (log2),[2],inactive: 0.0677
same,cell viability (log2),[3],inactive: 0.236
same,cell viability (log2),[4],inactive: 0.0895
COC(=O)C[C@H]1C(C)(C)C(=O)[C@@H]2C[C@@]3(O)C4=CC(=O)O[C@@H](c5ccoc5)[C@]4(C)CCC3[C@@]1(C)C2=O (stereo partly specified),cell viability (log2),[5],inactive: 0.0813
same,cell viability (log2),[6],inactive: 0.00839
same,cell viability (log2),[7],inactive: 0.172
same,cell viability (log2),[8],inactive: 0.118
COc1ccc2c(c1)c(CC(=O)OCC(=O)O)c(C)n2C(=O)c1ccc(Cl)cc1,cell viability (log2),[5],inactive: 0.202
same,cell viability (log2),[6],inactive: -0.0162
same,cell viability (log2),[7],inactive: 0.26
same,cell viability (log2),[8],inactive: 0.193
Cc1cccc(C2CN(C)CCc3c2cc(O)c(O)c3Cl)c1 (stereo unspecified),cell viability (log2),[1],inactive: 0.19
same,cell viability (log2),[2],inactive: 0.0719
same,cell viability (log2),[3],inactive: 0.0548
same,cell viability (log2),[4],inactive: 0.000981
Cc1c(C)c2c(c(C)c1O)CCC(C)(CCCC(C)CCCC(C)CCCC(C)C)O2 (stereo unspecified),cell viability (log2),[5],inactive: 0.0599
same,cell viability (log2),[6],inactive: 0.175
same,cell viability (log2),[7],inactive: 0.133
same,cell viability (log2),[8],inactive: 0.306
CC(=O)O[C@]1(C(C)=O)CC[C@H]2[C@@H]3C=C(C)C4=CC(=O)CC[C@]4(C)[C@H]3CC[C@@]21C,cell viability (log2),[9],inactive: 0.048
same,cell viability (log2),[10],inactive: 0.0501
same,cell viability (log2),[11],inactive: 0.0173
same,cell viability (log2),[12],inactive: 0.0399
same,cell viability (log2),[13],inactive: 0.115
same,cell viability (log2),[14],inactive: 0.0982
same,cell viability (log2),[15],inactive: 0.11
same,cell viability (log2),[16],inactive: 0.092
same,cell viability (log2),[17],inactive: 0.0652
same,cell viability (log2),[18],inactive: 0.121
same,cell viability (log2),[19],inactive: 0.113
same,cell viability (log2),[20],inactive: 0.0251
C=CC(C)(O)CCC=C(C)C (stereo unspecified),cell viability (log2),[5],inactive: 0.109
same,cell viability (log2),[6],inactive: 0.0913
same,cell viability (log2),[7],inactive: 0.135
same,cell viability (log2),[8],inactive: 0.115
Nc1nnc(-c2cccc(Cl)c2Cl)c(N)n1,cell viability (log2),[1],inactive: 0.146
same,cell viability (log2),[2],inactive: 0.137
same,cell viability (log2),[3],inactive: 0.218
same,cell viability (log2),[4],inactive: 0.113
Cc1cc(Nc2cc(CN3CCOCC3)c3nc(C)c(Cc4ccc(Cl)cc4F)n3n2)n[nH]1,cell viability (log2),[9],inactive: 0.0112
same,cell viability (log2),[10],inactive: 0.0393
same,cell viability (log2),[11],inactive: -0.00623
same,cell viability (log2),[12],inactive: -0.00356
same,cell viability (log2),[13],inactive: -0.0578
same,cell viability (log2),[14],inactive: 0.0432
same,cell viability (log2),[15],active: -0.183
same,cell viability (log2),[16],inactive: -0.0123
same,cell viability (log2),[17],active: -0.442
same,cell viability (log2),[18],active: -0.142
same,cell viability (log2),[19],active: -1.04
same,cell viability (log2),[20],active: -0.863
CC[C@@]1(O)C(=O)OCc2c1cc1n(c2=O)Cc2cc3c(CN(C)C)c(O)ccc3nc2-1,cell viability (log2),[9],active: -0.373
same,cell viability (log2),[11],active: -1.79
same,cell viability (log2),[12],active: -0.321
same,cell viability (log2),[13],active: -2.4
same,cell viability (log2),[14],active: -0.459
same,cell viability (log2),[15],active: -3.72
same,cell viability (log2),[16],active: -0.844
same,cell viability (log2),[17],active: -4.21
same,cell viability (log2),[18],active: -1.11
same,cell viability (log2),[19],active: -4.26
same,cell viability (log2),[20],active: -1.44
CC1CCCC(C)N1NC(=O)c1ccc(Cl)c(S(N)(=O)=O)c1 (stereo unspecified),cell viability (log2),[5],inactive: 0.125
same,cell viability (log2),[6],inactive: 0.128
same,cell viability (log2),[7],inactive: 0.102
same,cell viability (log2),[8],inactive: 0.0215
Clc1cc(Cl)c(OCC#CI)cc1Cl,cell viability (log2),[5],inactive: 0.0905
same,cell viability (log2),[6],inactive: -0.0049
same,cell viability (log2),[7],inactive: 0.0878
same,cell viability (log2),[8],inactive: 0.142
Oc1cc(O)cc(/C=C/c2ccc(O)c(O)c2)c1,cell viability (log2),"0.025 µM, library screen: screen1, EWS-FLI1 expression: high (no doxycycline)",inactive: 0.0929
same,cell viability (log2),"0.025 µM, library screen: screen1, EWS-FLI1 expression: low (doxycycline-induced shRNA knockdown)",inactive: 0.00184
same,cell viability (log2),[5],inactive: 0.117
same,cell viability (log2),[6],inactive: 0.0696
same,cell viability (log2),[1],inactive: -0.0238
same,cell viability (log2),[2],inactive: 0.0864
same,cell viability (log2),[7],inactive: 0.0516
same,cell viability (log2),[8],inactive: 0.151
same,cell viability (log2),[3],inactive: 0.187
same,cell viability (log2),[4],inactive: 0.0106
same,cell viability (log2),"25 µM, library screen: screen1, EWS-FLI1 expression: high (no doxycycline)",active: -0.42
same,cell viability (log2),"25 µM, library screen: screen1, EWS-FLI1 expression: low (doxycycline-induced shRNA knockdown)",inactive: 0.162
O=c1oc2ccccc2cc1O,cell viability (log2),[5],inactive: 0.0755
same,cell viability (log2),[6],inactive: 0.0093
same,cell viability (log2),[7],inactive: 0.138
same,cell viability (log2),[8],inactive: 0.0389
C=CCNc1nc2ccccn2c(=O)c1/C=C1\SC(=S)N(CCc2ccccc2)C1=O,cell viability (log2),[5],inactive: 0.071
same,cell viability (log2),[6],inactive: 0.0307
same,cell viability (log2),[7],inactive: 0.121
same,cell viability (log2),[8],inactive: 0.134
C=C1CCC(=O)C(C)CCC2C1CC2(C)C (stereo unspecified),cell viability (log2),[5],inactive: 0.0584
same,cell viability (log2),[6],inactive: -0.00925
same,cell viability (log2),[7],inactive: 0.119
same,cell viability (log2),[8],inactive: -0.105
CC1CCC2(OC1)OC1CC3C4CCC5C[C@@H](O)CCC5(C)C4=CCC3(C)C1[C@@H]2C (stereo partly specified),cell viability (log2),[5],inactive: 0.0912
same,cell viability (log2),[6],inactive: 0.0387
same,cell viability (log2),[7],inactive: 0.0505
same,cell viability (log2),[8],inactive: 0.0779
CC(C)CCCCCOC(=O)COc1ccc(Cl)cc1Cl,cell viability (log2),[5],inactive: 0.0385
same,cell viability (log2),[6],inactive: 0.102
same,cell viability (log2),[7],inactive: 0.111
same,cell viability (log2),[8],inactive: -0.0211
COc1ccc(C[C@@H](N)C(=O)N[C@H]2[C@@H](O)[C@H](n3cnc4c(N(C)C)ncnc43)O[C@@H]2CO)cc1,cell viability (log2),[7],active: -1.82
same,cell viability (log2),[8],active: -2
COc1ccc2c3c1O[C@H]1C[C@@H](O)C=C[C@@]31CCN(C)C2,cell viability (log2),[5],inactive: 0.0942
same,cell viability (log2),[6],inactive: -0.0176
same,cell viability (log2),[7],inactive: 0.152
same,cell viability (log2),[8],inactive: 0.105
CCCC(=O)O[C@]1(C(=O)CO)CC[C@H]2[C@@H]3CCC4=CC(=O)CC[C@]4(C)[C@H]3[C@@H](O)C[C@@]21C,cell viability (log2),[5],inactive: 0.135
same,cell viability (log2),[6],inactive: 0.151
same,cell viability (log2),[7],inactive: 0.136
same,cell viability (log2),[8],inactive: 0.0219
CC1(C)S[C@@H]2[C@H](NC(=O)COc3ccccc3)C(=O)N2[C@H]1C(=O)O,cell viability (log2),[5],inactive: 0.149
same,cell viability (log2),[6],inactive: 0.119
same,cell viability (log2),[7],inactive: 0.17
same,cell viability (log2),[8],inactive: 0.197
Cn1cncc1[C@@](N)(c1ccc(Cl)cc1)c1ccc2c(c1)c(-c1cccc(Cl)c1)cc(=O)n2C,cell viability (log2),[9],inactive: -0.139
same,cell viability (log2),[10],inactive: -0.0373
same,cell viability (log2),[11],active: -0.29
same,cell viability (log2),[12],inactive: -0.0603
same,cell viability (log2),[13],active: -0.324
same,cell viability (log2),[14],inactive: -0.0604
same,cell viability (log2),[15],active: -0.403
same,cell viability (log2),[16],active: -0.128
same,cell viability (log2),[17],active: -0.472
same,cell viability (log2),[18],active: -0.135
same,cell viability (log2),[19],active: -0.511
same,cell viability (log2),[20],active: -0.303
Cc1nnc(SCC2=C(C(=O)O)N3C(=O)[C@@H](NC(=O)Cn4cnnn4)[C@H]3SC2)s1,cell viability (log2),[5],inactive: 0.136
same,cell viability (log2),[6],inactive: 0.127
same,cell viability (log2),[1],inactive: 0.117
same,cell viability (log2),[2],inactive: 0.106
same,cell viability (log2),[7],inactive: 0.19
same,cell viability (log2),[8],inactive: 0.189
same,cell viability (log2),[3],inactive: 0.0924
same,cell viability (log2),[4],inactive: 0.0187
CC(=O)OCC1(O)CC23CCC4c5ccoc5CCC4(C)C2CCC1C3 (stereo unspecified),cell viability (log2),[5],inactive: 0.0224
same,cell viability (log2),[6],inactive: 0.0746
same,cell viability (log2),[7],inactive: 0.0154
same,cell viability (log2),[8],inactive: 0.0823

# From the supplement of paper PMC6089552
